About 730 (0.35%) of roughly 210,000 compounds were called active. Inconclusive means that the source gave no clear call. Such entries were picked first, then a sample of the others. Calls follow the shape of the dose curve; as a rule, active = well fitted inhibition curve with a large enough effect; inconclusive = small, poorly fitted or top-dose-only effect; inactive = no such curve, though single readings can be large or run the other way. Potencies of inconclusive entries are doubtful fits and often do not repeat.
Assay: qHTS Assay for Identifying the Cell-Membrane Permeable IMPase Inhibitors: Potentiation with Lithium; also: nearly all actives have a fitted effect of over 50% in size
Conditions: CHO-M1 cells, IP1 TR-FRET (IP-One), carbachol + lithium; series mostly up to 59.4 µM
Outline: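 CHO cells stably expressing M1 receptor (2000/well, cultured 16–30 h) treated 30 min at 37C with compound plus low lithium. Cytosolic IP1 by TR-FRET (665/620 ratio and 620 channel) after 10 min lysis; AC50 by Hill fit.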
Potency is read from the fitted curve at half-maximal effect.

Row | Structure (SMILES) | Potency
1 | COc1ccc2cc(C#N)c(SCC(=O)NNC(=O)Cc3ccccc3)nc2c1 | inconclusive: 28.2 µM [inhibitor, single point]
2 | Cc1nn(Cc2c(Cl)cccc2Cl)c(C)c1NC(=O)c1cc(C(C)C)on1 | inactive
3 | Cc1cc(NN)nc2ccc(Cl)cc12 | inactive
4 | CC(=O)Nc1ccc(NC(=O)CSc2ccc(-c3ccc4c(c3)OCO4)nn2)cc1 | inconclusive: 28.2 µM [inhibitor, single point]
5 | COCCNC(=O)c1nc2c(nnn2Cc2cc(C)ccc2C)c(=O)[nH]1 | inactive
6 | Cc1cccc(Nc2nn3c(=O)c4ccccc4nc3s2)c1 | inconclusive: 28.2 µM [inhibitor, single point]
7 | COc1ccc(C2C(C(=O)c3ccco3)=C(O)C(=O)N2c2nnc(C)s2)cc1 (stereo unspecified) | active: 11.2 µM
8 | CCNc1ncc2nc(-c3ccc(F)cc3)c(=O)n(CCc3ccccc3)c2n1 | active: 5.62 µM
9 | O=C(COC(=O)CCC(=O)c1cccs1)Nc1cc(S(=O)(=O)N2CCOCC2)ccc1Cl | inactive
10 | COc1ccc(-c2cc(-c3cccs3)c(C#N)c(SCC(=O)NCc3ccccc3OC)n2)cc1 | inconclusive: 28.2 µM [inhibitor, single point]
11 | CCOC(=O)c1cnc(SCC(=O)Nc2cc(C(F)(F)F)ccc2N2CCOCC2)nc1N | inconclusive: 12.6 µM [inhibitor, single point]
12 | S=c1nc[nH]c2c1[nH]c1ccccc12 | active: 4.47 µM
13 | CCOC(=O)c1sc(NC(=O)CSc2nc3c(cc2C#N)CCCCC3)c(C#N)c1C | inconclusive: 28.2 µM [inhibitor, single point]
14 | CC(C)C(OC(=O)c1cccs1)C(=O)NCc1cccs1 (stereo unspecified) | active: 25.1 µM
15 | CCn1nnc(NC(=O)c2sc3ccccc3c2Cl)n1 | inactive
16 | O=C(CSc1cccc2cccnc12)NCc1ccco1 | inactive
17 | COC(=O)c1sccc1NC(=O)c1ccc(Br)s1 | inconclusive: 20 µM [inhibitor, single point]
18 | O=C(CSc1ncnc2c1oc1ccccc12)NCc1ccco1 | active: 11.2 µM
19 | CCC(=O)Nc1sc(C(=O)Nc2ccccc2OC)c(C)c1C(=O)OC | inconclusive: 11.2 µM [inhibitor, single point]
20 | COc1cccc(Nc2ncc3nc(CCc4ccccc4)c(=O)n(CCC#N)c3n2)c1 | inconclusive: 12.6 µM [inhibitor, partial curve, poor fit]
21 | O=C(OC1CCOC1=O)c1cc(-c2cccs2)nc2ccccc12 (stereo unspecified) | inconclusive: 7.94 µM [inhibitor, partial curve]
